Assay results published in PubChem BioAssay AID1645887 (National Center for Advancing Translational Sciences (NCATS), 2021).
Values joined by “and” are separate entries in the source; they are usually repeats but may differ in a detail not shown here. Equal entries are not always repeated. Screen size: about 16,000 compounds; about 40 (0.2%) were called active. Inconclusive results (about 1%) are left out. The call rests on the fitted dose curve; in most records, active means well fitted activation curve with a large enough effect; inconclusive means small, poorly fitted or top-dose-only effect, or another doubt; inactive means no such curve, though single readings can be large or run the other way. Some of the results follow.

Biological target: Rap guanine nucleotide exchange factor 4 (Homo sapiens) (UniProt Q8WZA2)
Assay: Validation qHTS for agonist of cAMP-regulated guanine nucleotide exchange factor 4 (EPAC2);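 further: exchange makes BODIPY-GDP fluorescence drop when released from Rap1B; series mostly up to about 150 µM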
Conditions: EPAC2 Rap1B BODIPY-GDP exchange, fluorescence; activation: hits give high values
How it was run: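 Signal normalized against 6.5 mM cAMP as agonist control. Mix of EPAC2 (100 nM), RAP1B-BODIPY-GDP (250 nM) and GDP (50 uM) was read kinetically at 480/540 nm, every 5 min over 30 min, after 5 min room-temperature incubation with compound.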
On the % scale 0 is the no-effect control and ±100 the full control effect.

Sequence of UniProt Q8WZA2 (Q8WZA2 whole entry, looked up): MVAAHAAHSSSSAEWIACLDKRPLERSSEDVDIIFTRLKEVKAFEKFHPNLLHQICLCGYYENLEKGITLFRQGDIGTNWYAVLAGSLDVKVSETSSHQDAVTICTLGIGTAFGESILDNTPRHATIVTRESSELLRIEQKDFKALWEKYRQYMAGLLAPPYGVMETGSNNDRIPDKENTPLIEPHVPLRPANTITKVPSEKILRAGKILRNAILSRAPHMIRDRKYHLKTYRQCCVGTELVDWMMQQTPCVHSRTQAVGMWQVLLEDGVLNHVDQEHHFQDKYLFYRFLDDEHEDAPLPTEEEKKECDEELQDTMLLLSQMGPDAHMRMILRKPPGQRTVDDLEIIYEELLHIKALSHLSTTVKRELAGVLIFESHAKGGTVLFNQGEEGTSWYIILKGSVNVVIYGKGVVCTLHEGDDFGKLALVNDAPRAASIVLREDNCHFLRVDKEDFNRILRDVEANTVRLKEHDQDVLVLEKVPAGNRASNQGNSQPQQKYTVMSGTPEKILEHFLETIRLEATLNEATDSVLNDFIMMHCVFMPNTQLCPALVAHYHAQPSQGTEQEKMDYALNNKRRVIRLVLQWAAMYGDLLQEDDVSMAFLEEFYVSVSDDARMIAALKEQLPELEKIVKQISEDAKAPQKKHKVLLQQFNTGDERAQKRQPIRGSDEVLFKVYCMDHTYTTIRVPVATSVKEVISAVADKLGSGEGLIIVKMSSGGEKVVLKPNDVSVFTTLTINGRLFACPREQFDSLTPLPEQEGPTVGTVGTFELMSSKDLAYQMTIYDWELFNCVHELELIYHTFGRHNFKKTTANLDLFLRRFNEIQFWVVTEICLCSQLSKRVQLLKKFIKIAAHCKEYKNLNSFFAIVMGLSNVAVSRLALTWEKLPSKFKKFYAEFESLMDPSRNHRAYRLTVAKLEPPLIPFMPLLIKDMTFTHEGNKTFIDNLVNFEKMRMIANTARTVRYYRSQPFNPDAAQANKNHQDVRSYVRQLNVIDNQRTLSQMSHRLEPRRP

activation, inactive:
O=c1n(CC2CO2)c(=O)n(CC2CO2)c(=O)n1CC1CO1 (stereo unspecified) -11.3%
C[C@@H]1O[C@@H]1P(=O)(O)O 9.76%
Cn1c(=O)c2[nH]c(-c3ccc(S(=O)(=O)O)cc3)nc2n(C)c1=O -5.37% and -27%
Cn1cccc1C(=O)N1CCC2(CCCN(c3ncccn3)C2)CC1 -7.68%
COc1cc(-c2c(-c3ccc4c(c3)OCO4)noc2C)ccc1F -1.82%
COc1ccc(-n2c(=O)c(-c3ccccc3)nc3cnc(N4CCN(C)CC4)nc32)cc1 -4.54%
COc1cc(-c2cnc3ccccc3c2)cc2c1OCCN(C(=O)CCC(=O)c1ccc(F)cc1)C2 -1%
COc1cccc(-c2nccc(NCc3ccccc3OC)n2)c1 8.06%
CN=C(N)NCCC[C@H](N)C(=O)O 11.6% and -28.1% and -24.7%
CC(=O)NCCNc1ncnc2ccc(-c3ccccc3C(F)(F)F)cc12 -22.2%
COc1ccc(F)c(CN2CCOc3ccc(CN4CCC(O)(c5cccnc5)CC4)cc3C2)c1 -17.3%
NC(=O)c1sc(-c2ccsc2)cc1N -1.75%
COc1ccc(/C=C/C(=O)N2CCc3c(cnc(C)c3CNC(=O)c3ccsc3)C2)cc1OC -8.02%
COc1ccccc1CNc1ccnc(-c2ccccc2Cl)n1 3.68%
CCCCCCCCCCC(C)(C)C(=O)Nc1c(OC)cc(OC)cc1OC -90%
CC(N)(C(=O)O)c1ccc(C(=O)O)cc1 (stereo unspecified) 0.539% and -12.7%
CN1CCc2cccc3c2C1Cc1ccc(O)c(O)c1-3 (stereo unspecified) -1.99% and -24.3%
CC(=O)OCOC(c1ccc2ccccc2c1)P(=O)(OCOC(C)=O)OCOC(C)=O (stereo unspecified) -8.96%
CC#CCOC(=O)c1c(C)nc2sc3c(c2c1N)CCC(O)C3 (stereo unspecified) -36%
COC(=O)C1CCN(Cc2ccc3c(c2)CN(C(=O)c2cc(C)oc2C)CCO3)CC1 -4.57%
O=C(Nc1cccc(F)c1)N1CCCC2(CCN(C(=O)c3cnccn3)CC2)C1 4.69%
CCOc1ccccc1CN1CCCC(c2nc(C)ncc2-c2ccc(F)cc2)C1 (stereo unspecified) -16.2%
COc1ccccc1C1CN(Cc2ccccc2O)Cc2ccccc2O1 (stereo unspecified) 4.98%
COc1ccc(-c2ccnc(-n3ncc(C(=O)NCc4cccnc4)c3C3CC3)n2)cc1F -19.4%
CC(N)(COP(=O)(O)O)C(=O)O (stereo unspecified) 4.78%
O=c1c(-c2cccs2)nc2cncnc2n1Cc1ccccc1 -3.4%
COc1ccc(Oc2ncc3nc(-c4cccs4)c(=O)n(CCC#N)c3n2)cc1 3.43%
CCCCC(=O)Oc1ccccc1C(=O)O -11.2%
CC[C@]12CCCN3CCc4c(n(c5ccccc45)C(=O)C1)[C@@H]32 0.698%
C[C@@H]1CCC(=O)N(CC[C@H](Oc2ccccc2)c2ccccc2)CC1 -38.3%
Cn1cc(-c2nc3cncnc3n(C3CC3)c2=O)c2ccccc21 -16.8%
O=C(c1cccc(F)c1)N1CCC[C@@]2(CCN(Cc3ccncc3)C2)C1 -4.51%
NC(=O)c1cc[n+](CC2=C(C(=O)O)N3C(=O)[C@@H](NC(=O)C(c4ccccc4)S(=O)(=O)[O-])[C@H]3SC2)cc1 (stereo partly specified) 1.42%
COc1ccc(CN2C[C@H](Cc3ccccc3)[C@@H](CC(=O)Nc3ccccc3)C2=O)cc1 -26.4%
O=C(O[C@@H]1Cc2c(O)cc(O)cc2OC1c1ccc(O)c(O)c1)c1cc(O)c(O)c(O)c1 (stereo partly specified) -9.9%
COCCn1c(=O)c(-c2ccc(Cl)cc2)nc2cnc(N3CCOCC3)nc21 -7.24%
COc1cc(C)nc(-n2nc(C)cc2OC)n1 -19.1%
C[C@H](N)C(=O)O -8.54%
CCc1ccccc1N(C)C -19%
NCC(O)c1ccc(O)c(O)c1 (stereo unspecified) -10%
COc1cccc(CN2CCC3(CCC(CNC(=O)c4ccco4)O3)CC2)c1OC (stereo unspecified) -5.64%
O=c1ccc2c(OCCCCc3ccccc3)c3ccoc3cc2o1 -33.8%
O=C(NCCO)c1cn(C2CCCN(Cc3cccc(C(F)(F)F)c3)C2)nn1 (stereo unspecified) -4.42%
Cc1cccc2c(N3CCCC3)nc(CNS(=O)(=O)c3ccc4ccccc4c3)nc12 -13.5%
CN(C)c1ccc(/C=C/C=C/c2ccnc3ccccc23)cc1 -42.7%
COc1ncc2nc(-c3cccc(C#N)c3)c(=O)n(CCC#N)c2n1 -12.7%
CCn1c(=O)[nH]c2ccccc21 -7.2%
CN(C)C(=O)[C@@H]1C[C@@H](Sc2nc3ccccc3[nH]2)CN1Cc1ccnc2ccccc12 1.97%
CC1(C)C2CC[C@]3(C)[C@H](C(=O)C=C4[C@@H]5C[C@@](C)(C(=O)O)CC[C@]5(C)CC[C@]43C)[C@@]2(C)CC[C@@H]1O[C@H]1O[C@H](C(=O)O)[C@@H](O)[C@H](O)[C@H]1O[C@@H]1O[C@H](C(=O)O)[C@@H](O)[C@H](O)[C@H]1O (stereo partly specified) -12.1%
CN1CCC2(CC1)CCN(C(=O)c1ccncc1)CC2 -4.19%
CCOc1ccc(CN2CCOc3ccc(C(O)c4cccnc4)cc3C2)cc1 (stereo unspecified) -0.631%
CC(O)[C@@H](N)C(=O)O (stereo partly specified) 4.68%
COC(=O)c1cc(CNC(=O)c2ccccc2OC)cc(NC(=O)c2ccccc2F)c1 -9.28%
O=C(O)C1=CCNCC1 7.3% [middle of 4 runs]
OCc1ccccc1 -13.2%
CO[C@H]1C[C@H](O[C@H]2[C@H](C)[C@@H](O[C@@H]3O[C@H](C)C[C@H](N(C)C)[C@H]3OC(C)=O)[C@@H](C)C[C@]3(CO3)C(=O)[C@H](C)[C@@H](OC(C)=O)[C@@H](C)[C@@H](C)OC(=O)[C@@H]2C)O[C@@H](C)[C@@H]1OC(C)=O 5.56%
